The supplement of paper PMC4166925
± gives the standard deviation of the averaged measurements. Whole data set: some 33,000 sequences, median “E-score (dimensionless, -0.5 to 0.5)” near -0.049, cut for the highest 2% near 0.37. The list shows a part of the results.

These sequences were tested on T1, PmTbr T-box DNA-binding domain (GST fusion) (assay: PBM E-score of 8-mer (E-score (dimensionless, -0.5 to 0.5)); Tbr is Tbrain of the sea star Patiria miniata (Pm) or the sea urchin Strongylocentrotus purpuratus (Sp); higher = stronger binding preference; most listed sequences are background and not binding sites). Conditions: the construct has about 5 more residues each side.
T1 sequence: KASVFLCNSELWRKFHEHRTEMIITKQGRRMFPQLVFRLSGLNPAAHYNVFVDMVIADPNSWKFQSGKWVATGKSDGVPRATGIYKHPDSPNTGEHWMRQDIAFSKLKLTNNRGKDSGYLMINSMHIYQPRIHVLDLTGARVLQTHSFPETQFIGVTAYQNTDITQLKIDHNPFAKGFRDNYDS
Outline: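 GST-fused Tbr T-box DNA-binding domains (the whole T-box plus about five flanking residues) were expressed in BL21 E. coli at 20 °C and purified by glutathione affinity chromatography. Universal Agilent oligonucleotide arrays were made double-stranded by primer extension, incubated with 200 nM protein in PBS (pH 7.5), then scanned and quantified. Every ungapped 8-mer was scored from probe intensities. The Universal PBM Analysis Suite gave each word an enrichment E-score, averaged over duplicate arrays.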

| Sequence | PBM E-score of 8-mer |
| --- | --- |
| GCCTACAC | 0.112 ± 0.059 |
| CTGCGGGA | -0.177 ± 0.0041 |
| ATTCGTGG | -0.111 ± 0.019 |
| TGCGTGAA | 0.3679 ± 0.0033 |
| CGAAACAG | -0.0622 ± 0.067 |
| AACACCGA | 0.234 ± 0.034 |
| AAGGGGTA | -0.208 ± 0.017 |
| CAGCTGTC | 0.288 ± 0.017 |
| AGGTGCAT | 0.11 ± 0.017 |
| GCTACCAC | 0.146 ± 0.02 |
| AACTCTCC | -0.0439 ± 0.048 |
| AGACATGC | -0.0474 ± 0.0019 |
| AGCCACAC | 0.228 ± 0.058 |
| AAACTCAT | -0.112 ± 0.0095 |
| CGCAGATC | 0.015 ± 0.0024 |
| CGACTACG | 0.124 ± 0.033 |
| CTGATACA | -0.0621 ± 0.023 |
| CGAGTCAA | -0.0592 ± 0.08 |
| CGGCGCCG | 0.15 ± 0.13 |
| TAAACTCA | -0.159 ± 0.041 |
| ATGCATGA | -0.078 ± 0.0099 |
| CTAGACTC | -0.192 ± 0.01 |
| AAGCCTAA | -0.215 ± 0.042 |
| AAGTCTCC | -0.0144 ± 0.014 |
| CATGAGCA | -0.109 ± 0.08 |

| Sequence | PBM E-score of 8-mer |
| --- | --- |
| CAATTGTG | 0.222 ± 0.022 |
| ATACCGTC | -0.0027 ± 0.047 |
| CTTCATTA | -0.249 ± 0.018 |
| GGACCAAC | -0.124 ± 0.037 |
| CGACATGA | 0.028 ± 0.0062 |
| TAGCTTCA | 0.0195 ± 0.042 |
| AGCTGACG | 0.117 ± 0.011 |
| ATATTCTA | -0.0286 ± 0.013 |
| CTACTTCC | -0.204 ± 0.057 |
| TAGTGATA | 0.245 ± 0.035 |
| CGAGGTAC | -0.1003 ± 0.00044 |
| AAATGGGC | 0.0759 ± 0.0097 |
| CATATGTA | -0.109 ± 0.0059 |
| CTGTCCTC | -0.0314 ± 0.051 |
| GACGTAGC | -0.168 ± 0.026 |
| ACGCTACG | 0.0353 ± 0.01 |
| GTCAGGTA | 0.0624 ± 0.013 |
| ATAGAGCA | -0.184 ± 0.078 |
| GTATGTGA | 0.22 ± 0.044 |
| CGTAAACA | 0.155 ± 0.03 |
| ACACCCAG | 0.339 ± 0.021 |
| TCCCTTCA | 0.102 ± 0.043 |
| AACATCGG | -0.21 ± 0.035 |
| AATAAGGG | -0.19 ± 0.032 |
| CTATCCAA | -0.333 ± 0.077 |

| Sequence | PBM E-score of 8-mer |
| --- | --- |
| GGCACCTA | 0.412 ± 0.006 |
| AGCATCTA | -0.0258 ± 0.033 |
| CACATCGG | 0.284 ± 0.015 |
| AAACATTG | -0.0327 ± 0.00054 |
| AGTAATTC | -0.1366 ± 0.00053 |
| AGTCGAGC | 0.0378 ± 0.032 |
| AGAGAATA | -0.0684 ± 0.049 |
| GTGCATTA | -0.00588 ± 0.016 |
| GCAGCCTA | 0.167 ± 0.073 |
| TGTATACA | -0.276 ± 0.051 |
| CGAATCCA | -0.0509 ± 0.0035 |
| ATTTAAGC | -0.191 ± 0.065 |
| ACTTTGAC | 0.111 ± 0.0052 |
| ATGAAGCA | -0.0951 ± 0.0093 |
| ACTAGAAA | -0.177 ± 0.0096 |
| AACCCAAC | 0.0239 ± 0.013 |
| GATTCCTA | -0.238 ± 0.055 |
| TAGTCCCA | -0.27 ± 0.046 |
| CATTAGCG | 0.189 ± 0.014 |
| AGCGCATG | -0.118 ± 0.031 |
| AGAGATGA | -0.046 ± 0.098 |
| AGCAGAAA | -0.0429 ± 0.043 |
| ATGCTCAG | -0.141 ± 0.056 |
| CTCAATAC | -0.265 ± 0.027 |
| GTTCATGA | -0.122 ± 0.064 |

| Sequence | PBM E-score of 8-mer |
| --- | --- |
| CATTTTGC | -0.00766 ± 0.017 |
| CATCAACC | -0.196 ± 0.03 |
| GGTCAACA | 0.123 ± 0.0043 |
| AACCAGCG | 0.0116 ± 0.051 |
| AGGGATAC | -0.319 ± 0.026 |
| GTTGCTGA | 0.0831 ± 0.0053 |
| CCTTTTCC | 0.00333 ± 0.0028 |
| ACAAACAC | 0.203 ± 0.025 |
| AAACGAAC | 0.02851 ± 0.00012 |
| CGCTACCA | 0.243 ± 0.024 |
| GGAGATGA | -0.119 ± 0.023 |
| TACGAGCA | -0.105 ± 0.018 |
| GGTGATGA | 0.343 ± 0.028 |
| CAACACCA | 0.392 ± 0.015 |
| AGTCACGA | 0.0948 ± 0.067 |
| CCGGAGGC | -0.189 ± 0.097 |
| CTCTCACA | 0.3481 ± 0.0026 |
| CGTTACTA | 0.0165 ± 0.0058 |
| CTGTGAGA | 0.314 ± 0.0081 |
| AAGCGCTC | -0.124 ± 0.013 |
| GTGTGCCA | 0.237 ± 0.025 |
| AAGTCAAT | -0.196 ± 0.035 |
| ATTATCCG | -0.0296 ± 0.042 |
| ATTCCTAC | -0.269 ± 0.065 |
| AAGACCGA | -0.165 ± 0.03 |

| Sequence | PBM E-score of 8-mer |
| --- | --- |
| AGCGCTAT | 0.0936 ± 0.018 |
| GCAGTTCA | -0.17 ± 0.079 |
| CGTTCTGA | -0.208 ± 0.056 |
| CCGGGTTA | -0.275 ± 0.013 |
| AGAACTCG | 0.0872 ± 0.055 |
| CAGGTTTC | -0.0284 ± 0.064 |
| CTCATTCC | 0.0476 ± 0.034 |
| ACATACCA | 0.144 ± 0.04 |
| GGTCGGGA | -0.147 ± 0.05 |
| CCGGATCG | -0.0164 ± 0.013 |
| ACGTAACT | -0.0679 ± 0.011 |
| AACGTTAT | -0.0689 ± 0.1 |
| ATTGCGGG | -0.101 ± 0.024 |
| AGTATTTG | -0.0153 ± 0.051 |
| GATGACGC | 0.195 ± 0.0088 |
| AGAGCAAC | -0.135 ± 0.026 |
| GAAAGACA | -0.129 ± 0.061 |
| CGCATGGC | -0.0622 ± 0.09 |
| CGGCAATC | 0.00788 ± 0.053 |
| TAGTAACA | 0.0969 ± 0.045 |
| AAATTGTA | -0.213 ± 0.025 |
| GCAGCTTA | -0.0556 ± 0.0013 |
| ACGAGTTA | 0.111 ± 0.032 |
| CCCCAAGA | -0.104 ± 0.019 |
| AATGCCTC | -0.145 ± 0.012 |

| Sequence | PBM E-score of 8-mer |
| --- | --- |
| CAGCCGTC | -0.0449 ± 0.12 |
| ATTGTATG | -0.0862 ± 0.042 |
| CGCTATTC | 0.104 ± 0.0044 |
| ATACCGCC | 0.0278 ± 0.0085 |
| ATCTGGCC | -0.345 ± 0.013 |
| GTCTTGTA | -0.159 ± 0.026 |
| TAATTGCA | -0.0324 ± 0.06 |
| GTCTAGAC | -0.223 ± 0.085 |
| CCTCCCAC | 0.119 ± 0.033 |
| TAATGGTA | -0.0259 ± 0.032 |
| GTAAGTAC | -0.00138 ± 0.0093 |
| CTTATGCA | -0.135 ± 0.047 |
| ACCAAATC | 0.0778 ± 0.041 |
| AGATTACC | -0.262 ± 0.051 |
| AGGTTCTC | 0.0874 ± 0.028 |
| CTTCGGCA | 0.054 ± 0.018 |
| GCCTGCTA | 0.11 ± 0.017 |
| CCACCCAC | 0.153 ± 0.052 |
| AGTGAGGC | 0.0767 ± 0.038 |
| AGCACGAA | 0.0403 ± 0.025 |
| TCAAACGA | -0.132 ± 0.04 |
| GACATATA | -0.173 ± 0.057 |
| TACTGCGA | 0.149 ± 0.029 |
| CACGGACA | 0.222 ± 0.017 |
| CATTTTAC | 0.0972 ± 0.072 |

| Sequence | PBM E-score of 8-mer |
| --- | --- |
| ATTCATTC | -0.223 ± 0.086 |
| AGGCCCCT | -0.279 ± 0.0033 |
| AGCCATAA | -0.149 ± 0.01 |
| AGACATCC | -0.224 ± 0.039 |
| GAGACTTA | -0.063 ± 0.0065 |
| CTCCATGA | -0.245 ± 0.061 |
| AAGCGTAA | -0.138 ± 0.09 |
| ACGTGCAG | 0.0746 ± 0.0073 |
| GTTATGAA | -0.028 ± 0.039 |
| CAATTGAA | -0.158 ± 0.077 |
| CCGTTGCA | 0.0392 ± 0.088 |
| ACCTACCG | -0.0203 ± 0.078 |
| CGCTGAAG | -0.0365 ± 0.0018 |
| GAGTCATC | -0.175 ± 0.003 |
| AACTCCTT | -0.105 ± 0.0098 |
| CTGGATGC | 0.0124 ± 0.0062 |
| ATCAATTG | 0.049 ± 0.095 |
| GCCACCCA | 0.0536 ± 0.024 |
| ACCTCGCG | 0.34924 ± 0.00023 |
| CTCTTTGA | -0.03 ± 0.094 |
| ATGAAGGA | -0.276 ± 0.028 |
| CCTGATGA | 0.0372 ± 0.038 |
